Measured values as given in publication PMC7321149 (Molecules, 2020).
Like-named read-outs stand apart in the source and are kept apart here.

Tests used:
Experiment in all cases: Leishmania high content assay, intracellular amastigotes in PMA-differentiated THP-1 macrophages
[1] = test system: L. amazonensis; format: cell-based, Leishmania amazonensis (MHOM/BR/1977/LTB0016); details: confirmatory dose-response, mean of two independent experiments, pEC50 = -log EC50 (M)
Procedure: (§1) THP-1 cells were plated onto 384-well assay plates (7000 cells/well, 25 μL) in RPMI complete media containing 50 ng/mL phorbol 12-myristate 13-acetate (PMA) and incubated at 37 °C/5% CO2 for 48 h. Cells were then infected with stationary-phase promastigotes at a multiplicity of infection (MOI) of 50 by adding 25 μL RPMI (without PMA reagent), containing 1.4 × 10^7 parasites/mL. After 24 h of incubation at 37 °C (34 °C for cutaneous species), negative control-vehicle (0.5% DMSO), the positive control (10 μM amphotericin B), and compounds were added to the plate at a volume of 10 μL/well, bringing the total volume to 60 μL/well. For the primary screenings, compounds from the LOPAC library were tested at a concentration of 50 µM. […] Assay plates were incubated at 37 °C or 34 °C/5% CO2. After 96 h of compound exposure, assay plates were fixed with paraformaldehyde (PFA) by adding 30 μL of 12% PFA in PBS, pH 7.4, followed by incubation for 15 min at room temperature. Plates were then washed three times with 50 μL of PBS, pH 7.4, and stained with 10 μL/well of 5 μM Draq5 in PBS, pH 7.4, for at least two hours before imaging.
(§2) Plates were imaged in Operetta High Content Imaging System (Perkin Elmer), version 3.1, at a 20× magnification and filters optimized for far-red fluorescence (fluorescence filter: […]). A total of four images were acquired per well, which corresponded to 600–800 cells analyzed per condition. Quantitative readouts of the infection (total THP-1 cell number, total number of infected THP-1 cells, and number of parasites (spots) per infected cell) were determined by custom analysis building blocks in Columbus image analysis software (Perkin Elmer). Briefly, host nuclei and cells were segmented based on DNA staining, followed by the detection of individual parasites also based on DNA staining. Infected cells were determined as cells with one or more spots in the cytoplasmatic area. Details of the analysis workflow are described in the (Supplementary Information (Figure S4 and Table S1).
HCS data were analyzed as previously described^29. Briefly, the ratio of infected cells to the total number of cells was determined as the infection ratio (IR). The raw data for IR values was normalized to the negative (DMSO-treated infected cells) and positive (non-infected cells) controls to determine the normalized antiparasitic activity, expressed as a percentage in comparison to control wells. The cellular ratio was determined as the proportion between the host cell number in compound-treated wells and the mean cell number in infected control wells. Plates were submitted to quality control analysis using the Z’-factor^53 and only plates with Z’-factor > 0.5 were considered for further analysis. Groups of different samples were analyzed using the ANOVA test followed by Tukey’s multiple comparison test. Studies of correlation were performed using Pearson or Spearman tests. […] Dose–response data were processed with the Graphpad Prism software, version 6, using the sigmoidal dose–response (variable slope) nonlinear curve fitting function.

[2] = test system: L. braziliensis; format: cell-based, Leishmania braziliensis (MHOM/BR/1975/M2903); details: confirmatory dose-response, mean of two independent experiments, pEC50 = -log EC50 (M)
Procedure: as §1, §2
(§3) HCS data were analyzed as previously described^29. Briefly, the ratio of infected cells to the total number of cells was determined as the infection ratio (IR). The raw data for IR values was normalized to the negative (DMSO-treated infected cells) and positive (non-infected cells) controls to determine the normalized antiparasitic activity, expressed as a percentage in comparison to control wells. The cellular ratio was determined as the proportion between the host cell number in compound-treated wells and the mean cell number in infected control wells. […] Groups of different samples were analyzed using the ANOVA test followed by Tukey’s multiple comparison test. […]

[3] = test system: L. donovani; format: cell-based, Leishmania donovani (MHOM/IN/1980/DD8)
Procedure: as §1, §2, §3

[4] = THP-1, confirmatory dose-response, mean of two independent experiments, pEC50 = -log EC50 (M), read-out: pEC50 M L. d (converted)

Compound | EC50 [1] [M] | EC50 [2] [M] | EC50 [3, 4] [M] | EC50 ([3]; THP-1, read-out: pEC50 M L. d (converted)) [M]
Clc1ccc2c(c1)C(N1CCNCC1)=Nc1ccccc1O2 [Amoxapine] | 3.8e-05 | 3.09e-05 |  | 
CN1[C@@H]2CC[C@H]1C[C@@H](OC(c1ccccc1)c1ccccc1)C2 [Benztropine] | 3.24e-05 | 2.88e-05 |  | 
CN(C)CCCN1c2ccccc2CCc2ccc(Cl)cc21 [Clomipramine] | 3.63e-05 |  |  | 
CN1CCC(=C2c3ccccc3C=Cc3ccccc32)CC1 [Cyproheptadine] |  | 4.07e-05 |  | 
OCCN1CCN(CCCN2c3ccccc3Sc3ccc(C(F)(F)F)cc32)CC1 [Fluphenazine] | 3.8e-05 |  | 3.8e-05 | 
CN(C)C(=O)C(CCN1CCC(O)(c2ccc(Cl)cc2)CC1)(c1ccccc1)c1ccccc1 [Loperamide] |  |  |  | 2.69e-05
CNCCCC12CCC(c3ccccc31)c1ccccc12 [Maprotiline] | 3.63e-05 | 3.16e-05 | 2.75e-05 | 
CSc1ccc2c(c1)N(CCC1CCCCN1C)c1ccccc1S2 (stereo not shown) [Thioridazine] |  |  | 2.63e-05 | 
